Reference: the supplement of paper PMC3334620
In all, about 33,000 sequences were measured (“E-score (-0.5 to 0.5)”: median about -0.054, highest 2% from about 0.35 on). The list shows a part of the results.

Biological target: T1, Stb5 (UniProt P38699)
T1 sequence: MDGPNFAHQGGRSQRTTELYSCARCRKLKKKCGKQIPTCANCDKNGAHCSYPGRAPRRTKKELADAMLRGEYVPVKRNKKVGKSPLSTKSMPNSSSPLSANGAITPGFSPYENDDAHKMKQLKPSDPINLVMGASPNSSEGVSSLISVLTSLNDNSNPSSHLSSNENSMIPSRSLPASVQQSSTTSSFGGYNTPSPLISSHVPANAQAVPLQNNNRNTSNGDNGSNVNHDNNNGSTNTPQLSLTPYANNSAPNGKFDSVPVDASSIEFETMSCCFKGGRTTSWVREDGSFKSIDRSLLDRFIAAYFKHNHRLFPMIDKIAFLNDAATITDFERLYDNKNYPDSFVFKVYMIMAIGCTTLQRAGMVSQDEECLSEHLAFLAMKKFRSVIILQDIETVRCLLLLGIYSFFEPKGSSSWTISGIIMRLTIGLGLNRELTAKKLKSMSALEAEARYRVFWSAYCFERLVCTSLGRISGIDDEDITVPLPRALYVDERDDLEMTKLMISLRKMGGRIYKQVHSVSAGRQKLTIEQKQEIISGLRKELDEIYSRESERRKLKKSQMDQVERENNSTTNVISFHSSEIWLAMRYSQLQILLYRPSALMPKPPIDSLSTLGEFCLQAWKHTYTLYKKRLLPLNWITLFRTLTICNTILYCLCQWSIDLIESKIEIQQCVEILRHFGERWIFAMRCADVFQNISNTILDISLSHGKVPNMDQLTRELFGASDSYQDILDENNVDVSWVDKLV
Assay: PBM E-score (8-mer binding enrichment) (E-score (-0.5 to 0.5)); higher = stronger / more preferred TF binding; most listed sequences are background and not binding sites
Conditions: protein concentration: 200 nM; construct: GST-full length
Procedure, shortened: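 Full-length yeast transcription factors or their DNA-binding domains, GST-tagged and expressed with PURExpress, were applied at about 100-200 nM to universal all-10-mer Agilent arrays. These arrays had been made double-stranded by primer extension on fresh or once-stripped slides. Detection used fluorescent anti-GST, normalisation used masliner, and E-scores for ungapped eight-base words pooled with reverse complements came from the Universal PBM Analysis Suite.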

| Sequence | PBM E-score |
| --- | --- |
| CCTAACAA | -0.157 |
| TAACGGTA | 0.136 |
| TACTTTGA | -0.207 |
| GGGTCCGA | 0.332 |
| CCTGATAA | -0.0146 |
| CCCCTAAA | 0.0172 |
| GGATCGCA | -0.0659 |
| CATGGAGA | -0.245 |
| CCAGGAGA | -0.246 |
| ATGGCTGC | -0.162 |
| GTCTAGTA | -0.152 |
| CCTAATAC | -0.034 |
| ACTAGTTA | -0.164 |
| ACGGAACG | 0.0455 |
| TCAGAAGA | -0.148 |
| CTTATAAA | 0.0811 |
| CGCAAACA | -0.0985 |
| CCCCTTGC | -0.297 |
| CAGTGGCC | -0.124 |
| CTCCTGTA | 0.0419 |
| CAAATAGC | 0.00995 |
| ACGACCGC | 0.269 |
| AAGGTCGA | -0.0719 |
| GGTAGTAA | 0.0863 |
| GGTCGAAC | -0.0558 |

| Sequence | PBM E-score |
| --- | --- |
| GTATCTCA | -0.0447 |
| GCGCGCTA | 0.112 |
| AGATTGCG | -0.0306 |
| CACCGTCA | 0.333 |
| AGTCATAA | 0.0146 |
| CTGGGAAA | -0.125 |
| CAGAGCTG | -0.124 |
| AATCAGAC | -0.173 |
| AGATGACA | -0.219 |
| TCATCTAA | -0.0557 |
| GGAGAAAA | 0.226 |
| CCACAACG | 0.146 |
| TATCCGGA | 0.265 |
| CATCCACG | -0.0788 |
| CCGGGGCG | 0.302 |
| CAATCGTG | -0.129 |
| ATTCTTTA | -0.135 |
| GCCATGCA | -0.0118 |
| GCCGTAAA | 0.278 |
| CGCGTCCA | -0.0865 |
| GGATACCC | 0.0609 |
| CGCCTTTC | 0.0594 |
| ATAAATGA | -0.243 |
| TAATTGAA | 0.0222 |
| AATCCCAT | -0.042 |

| Sequence | PBM E-score |
| --- | --- |
| GATCCCGC | 0.232 |
| CGAGATCG | 0.0313 |
| CCAGCGCC | 0.104 |
| AGACGAAA | 0.0569 |
| AAGATGCA | -0.283 |
| CCGAGTCC | 0.0504 |
| GTACCACA | -0.171 |
| CGGGCAAC | 0.0447 |
| CATAATAG | -0.00555 |
| CCATATCA | -0.0191 |
| CGACCCGC | 0.198 |
| AGCTTCAT | -0.0104 |
| ACGCCTGG | 0.0202 |
| GTTTTTTA | -0.0247 |
| GCTTCTCA | -0.109 |
| CCGGTAGG | 0.184 |
| AGTCTTTC | -0.273 |
| CCTCGGGA | 0.0973 |
| AACTACTC | 0.017 |
| CACTCGGC | 0.165 |
| AACTTTAC | 0.0785 |
| ATGCACCA | -0.08 |
| AAGCGAAT | -0.144 |
| ATAAGTTC | 0.177 |
| CCCGACGG | 0.437 |

| Sequence | PBM E-score |
| --- | --- |
| CATCACAA | -0.234 |
| TATCGCCA | 0.0895 |
| ACAAGTCT | -0.32 |
| TATCGACA | -0.23 |
| CACTCGTC | -0.00096 |
| AGACATAT | -0.25 |
| GTGATCCA | -0.0848 |
| GAACTACA | -0.0629 |
| AAAGCCGG | 0.286 |
| CGACATCA | 0.0974 |
| AGCGGCGC | 0.363 |
| AGATAGTA | -0.0862 |
| GGGAGCCA | -0.244 |
| GAAGGGTC | -0.132 |
| GCCCTTAA | 0.191 |
| AACAAGAG | -0.152 |
| CATGCCAC | -0.0849 |
| AAAATTAA | 0.00863 |
| CTTTCACA | -0.0931 |
| GCGGCCTA | 0.178 |
| CTACTCAG | -0.216 |
| TACGTGAA | -0.13 |
| CTAAGGGA | -0.0323 |
| AGCGGTCC | 0.327 |
| AATGCCTG | -0.102 |

| Sequence | PBM E-score |
| --- | --- |
| ACGCTCCC | -0.0325 |
| AAGCCATA | -0.327 |
| TCTTTTCA | -0.0123 |
| GAACGGTC | 0.192 |
| AATATATC | 0.171 |
| ATTACCAC | -0.0328 |
| AGGAAAAT | 0.015 |
| AACTGACA | -0.194 |
| GAAGCTTA | -0.173 |
| CGGCACCA | 0.394 |
| GAGACGGC | -0.00918 |
| CTATGTAC | -0.172 |
| AATACCAA | -0.0935 |
| GGATCAGA | -0.166 |
| GATTAAGA | 0.0302 |
| AACTAATC | 0.027 |
| ATCTAGAT | -0.335 |
| ACAAGTCC | 0.154 |
| AGGTTTGG | -0.148 |
| CAGTGCCA | -0.249 |
| CTCTTAGC | -0.056 |
| ATGAACTC | -0.133 |
| ATCAGTCA | -0.13 |
| GAATAACA | 0.163 |
| GACCACTA | -0.272 |

| Sequence | PBM E-score |
| --- | --- |
| CTCTATGA | -0.245 |
| AGGAGAAA | -0.166 |
| AATAGACA | -0.221 |
| AAATTGCG | 0.124 |
| GTGTACAA | 0.0725 |
| GGCTTTAC | 0.287 |
| ACCGGAGT | 0.347 |
| CGTTTGAC | -0.0143 |
| AAATTATC | -0.0238 |
| GACGTAAC | -0.00555 |
| AGATTGAC | -0.0509 |
| GTGTAGGA | 0.0113 |
| GAAGGATA | 0.00673 |
| AGCAGAAG | -0.0817 |
| ACAGGCGC | 0.0177 |
| TCGTATCA | -0.097 |
| GAGCGCAA | -0.122 |
| GCGGGTTA | 0.148 |
| CCGCGAGA | 0.133 |
| CGAGTCAC | -0.0126 |
| TCTTTGAA | -0.122 |
| CACTATCA | -0.126 |
| GAACAAAA | -0.0824 |
| AACCAAAA | -0.102 |
| CAGTTCAA | -0.157 |

| Sequence | PBM E-score |
| --- | --- |
| ACCCAGGA | -0.229 |
| ATTTCTAG | 0.0951 |
| CCCACATA | 0.0472 |
| CCAGCACA | -0.157 |
| CGCTCCGC | 0.164 |
| TAGGCTAA | -0.174 |
| GTAGTGAA | -0.131 |
| CACGCGAA | -0.207 |
| AATCTGCA | -0.273 |
| CACAAGTG | -0.211 |
| ACGGTTAA | 0.00553 |
| ATGATCGG | 0.297 |
| GTGTATGA | -0.0134 |
| ATTTATGA | 0.0478 |
| ATCCTTTA | 0.127 |
| AGAGGTAT | -0.189 |
| TGTGAGAA | -0.0988 |
| ACGGGATC | 0.21 |
| TCCACCCA | -0.0819 |
| GAGAGTCA | -0.12 |
| ATGTAGTA | -0.0458 |
| ATCAGCTC | -0.0577 |
